Source: ChEMBL document CHEMBL1201862, “PubChem BioAssay data set” (2004)

The molecules below were run on NCI-H322M (assay: growth of human tumour cells (NCI), 48 h).

Compound | GI50
C1CCNCC1.Oc1ncnc2[nH]cc(CN3CCCCC3)c12 | inactive: > 100 µM
C=CC(=O)N1C/C(=C\c2ccc(Cl)cc2)C(=O)/C(=C/c2ccc(Cl)cc2)C1 | active: 0.94 µM
O=C1NC2c3c(I)sc(I)c3C(=O)C2O1 (centres undefined) | inactive: 16.3 µM
O=S(=O)(c1ccc(Br)cc1)N1CCN(S(=O)(=O)c2ccc(Br)cc2)CC1 | inactive: > 100 µM
COc1ccc(-c2oc3c(OC)c(OC)c(OC)c(O)c3c(=O)c2OC)cc1O | active: 0.918 µM
COC1C(O)C(C)OC(OC2C(Oc3cccc4c(O)c5c(=O)oc6ccc(C)c7c(=O)oc(c34)c5c67)OC(C)C3O[C@H](c4ccccc4)OC32)C1O (some centres undefined) | active: 0.305 µM
CCCCCCCCCCCCCCCCCCNc1ccn(C2OC(COP(=O)(O)OCC3OC(n4cc(F)c(NCCCCCCCCCCCCCCCCCC)nc4=O)CC3O)C(O)C2O)c(=O)n1 (centres undefined) | inactive: > 100 µM
O=c1[nH]c2nc3ccccc3c(=O)n2/c1=C/c1ccc(Cl)cc1 | inactive: 50.1 µM
COC(=O)C1Cc2c([nH]c3ccccc23)C(c2ccccc2O)N1 (centres undefined) | inactive: 36.6 µM
COc1ccc(OC)c(N(CN2C(=O)CCC2C(=O)O)C(C)=O)c1 (centres undefined) | inactive: > 100 µM
COc1ccc(-c2cnoc2-c2ccc(OC)c(OC)c2)cc1OC | inactive: 3.4 µM
CC(CN(C)C)/C(=N\Nc1ccccc1)c1ccccc1 (centres undefined) | inactive: 19.8 µM
CC(C)CC(=O)OC[n+]1cccc(-c2c(COC(=O)NC(C)C)c(COC(=O)NC(C)C)c3n2CCC3)c1 | inactive: 53.6 µM
CCOc1cc(NC(C)=O)ccc1C(=O)NN1C(=O)C(Cl)C1c1ccc(O)c(OC)c1 (centres undefined) | inactive: 13.7 µM
CCOC(=O)Cc1ccc(Nc2nc3ccccc3nc2C(=O)OCC)cc1 | inactive: 85.5 µM
O=C(O)c1cccc(/N=N/c2c(S(=O)(=O)O)ccc3c2C(=O)c2ccccc2C3=O)c1O | inactive: > 100 µM
COC(=O)C(=O)Nc1cc2c3c(c1)Oc1cccc4c1C3(C)c1c(cccc1O2)O4 | inactive: > 100 µM
CC1(C)CC2C(=O)c3ccccc3NC2c2ccccc21 (centres undefined) | inactive: 5.5 µM
COC(CNC(=O)C(C)NC(=O)CCc1ccccc1)OC (centres undefined) | inactive: > 100 µM
CCS(=O)(=O)c1c2cc(OC)ccc2nc2ccc(OC)cc12 | inactive: > 100 µM
CCN(C(C)=O)c1cnc(/C=N/NC(N)=S)c2ccccc12 | inactive: 1.45 µM
Nc1nc(N)c(-c2ccccc2)c(C(=O)Nc2nccs2)n1 | inactive: > 100 µM

Compound | GI50
OC1CCC(COC(c2ccccc2)(c2ccccc2)c2ccccc2)O1 (centres undefined) | inactive: 16.9 µM
C/N=C1\OC2=C3C(c4ccccc4)(O/C(=N/C)N(C)C3(c3ccccc3)OC2=O)N1C (centres undefined) | inactive: > 100 µM
N#Cc1nc(C(O)c2ccccc2)oc1N (centres undefined) | inactive: > 100 µM
COc1cc(OC(C)=O)cc2c(OC(C)=O)ccc(OC(C)=O)c12 | inactive: > 100 µM
COc1cc2c(c(OC)c1OC)-c1ccc(SC)c(=O)cc1C(CC(=O)Oc1cccc(F)c1)C2 (centres undefined) | inactive: 2.51 µM
CCCCCCOc1ccc(C(=O)N(C)O)cc1 | inactive: 26.4 µM
CCCCCCCCCCCCO[PH](=O)OCCCCCCCCCCCC | inactive: > 100 µM
COC(=O)/C=C(\S/C(=N\n1cc(C(=O)OC)c(C(=O)OC)c1-c1ccc(C)cc1)c1ccc(C)cc1)C(=O)OC | inactive: 31.6 µM
CCOC(=O)C1=C(C#N)S(=O)(=O)c2c(oc(C)c2C)N1 | inactive: > 100 µM
O=C(CSCC(=O)N/N=C/c1cccs1)N/N=C/c1cccs1 | inactive: > 100 µM
O=C(C(=C(I)I)c1ccccc1)c1ccccc1 | inactive: 23.6 µM
CC(=O)N(C)c1cc(NCc2ccccc2)ccc1OCc1ccccc1 | inactive: 20.7 µM
CC(=O)OC[C@H]1CN(OC(C)=O)C[C@@H](n2cc(C)c(=O)[nH]c2=O)O1 | inactive: > 100 µM
NC(=O)C1=NNc2ccccc2C(=O)N1c1ccccc1 | inactive: > 100 µM
O=c1oc2ccccc2cc1-c1nc2ccc([N+](=O)[O-])cc2o1 | inactive: > 100 µM
COC(=O)[C@@H]1C=C[C@@H](C#N)n2c(=O)n(-c3ccccc3)c(=O)n21 | inactive: 43.2 µM
COc1ccccc1NC(=O)CC(=O)NN | inactive: > 100 µM
CC(C)C(Sc1nc(-c2ccccc2)c(-c2ccccc2)[nH]1)C(=O)N/N=C/c1ccc([N+](=O)[O-])cc1 (centres undefined) | inactive: 22.9 µM
Cc1c(C)c(S(=O)(=O)N(CCCCCON)OCCCN)c(C)c2c1OC(C)(C)CC2 | inactive: 13.5 µM
CC(C)Cc1ccc(C(C)/C=C2\CCC(CN3CCCCC3)C2=O)cc1 (centres undefined) | inactive: 14.5 µM
O=C1NC(=S)NC(=O)C1=Cc1ccc([N+](=O)[O-])o1 | inactive: > 100 µM
COC/C=C\COC | inactive: > 100 µM

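96-well plates; 48 h exposure; 5 concentrations. Endpoints by linear interpolation between flanking doses. Not reached: highest tested concentration assigned. Abbreviation: GI50, concentration required for 50% inhibition of growth.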 The source made the active and inactive calls. Rule as the data show it: active = GI50 up to about 1.1 µM and inactive = higher.
